Measurements as given in article PMC4336329 (PLoS ONE, 2015).
About 14,000 (4.5%) of roughly 310,000 compounds showed an effect of 50% or more. Effects have a minus sign here. The list shows a part of the results.

Molecular target: human ether-à-go-go-related gene (hERG) potassium channel (human, UniProt Q12809)
Test: primary screen, population patch clamp on CHO cells stably expressing hERG
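Also: peak tail current of the secondary pulse compared with the same well before compound.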

Sequence of human ether-à-go-go-related gene (hERG) potassium channel (Q12809 whole entry, looked up): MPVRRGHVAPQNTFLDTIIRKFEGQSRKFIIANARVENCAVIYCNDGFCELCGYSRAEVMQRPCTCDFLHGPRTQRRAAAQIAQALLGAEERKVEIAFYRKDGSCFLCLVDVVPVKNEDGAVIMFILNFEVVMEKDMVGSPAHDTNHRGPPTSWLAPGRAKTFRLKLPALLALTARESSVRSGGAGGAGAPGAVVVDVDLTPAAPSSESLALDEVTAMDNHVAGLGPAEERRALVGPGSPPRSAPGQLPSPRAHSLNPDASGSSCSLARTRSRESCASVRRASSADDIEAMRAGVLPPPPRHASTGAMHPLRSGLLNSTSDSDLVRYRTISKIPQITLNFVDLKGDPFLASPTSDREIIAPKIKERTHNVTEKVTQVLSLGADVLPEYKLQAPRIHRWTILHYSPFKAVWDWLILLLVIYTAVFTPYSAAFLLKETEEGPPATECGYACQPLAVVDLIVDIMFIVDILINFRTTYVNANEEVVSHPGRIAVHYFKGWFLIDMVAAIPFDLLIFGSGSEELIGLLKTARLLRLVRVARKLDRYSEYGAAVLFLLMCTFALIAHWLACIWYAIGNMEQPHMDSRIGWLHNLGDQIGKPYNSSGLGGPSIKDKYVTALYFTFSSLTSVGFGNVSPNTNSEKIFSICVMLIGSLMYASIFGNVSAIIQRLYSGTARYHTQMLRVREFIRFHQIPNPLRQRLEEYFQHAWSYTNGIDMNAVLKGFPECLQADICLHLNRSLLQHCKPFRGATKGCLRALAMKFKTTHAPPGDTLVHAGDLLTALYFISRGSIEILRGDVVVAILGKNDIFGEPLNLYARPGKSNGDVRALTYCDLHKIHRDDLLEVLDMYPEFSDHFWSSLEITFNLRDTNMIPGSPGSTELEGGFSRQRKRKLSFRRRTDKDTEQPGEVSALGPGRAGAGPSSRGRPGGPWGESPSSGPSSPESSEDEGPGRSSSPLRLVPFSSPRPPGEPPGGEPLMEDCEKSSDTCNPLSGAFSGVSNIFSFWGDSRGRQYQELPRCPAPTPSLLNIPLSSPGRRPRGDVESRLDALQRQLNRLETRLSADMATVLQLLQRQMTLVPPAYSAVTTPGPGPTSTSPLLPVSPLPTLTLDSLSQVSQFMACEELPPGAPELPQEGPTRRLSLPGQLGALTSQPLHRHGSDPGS

Compound | hERG current change (%, negative = inhibition) at 10uM [%]
O=C(CSc1ccc(Cl)cc1)NC1CCCC1 | 4.47
Cc1nc(-c2ccc3c(c2)OCCCO3)cs1 | 4.21
N#Cc1ccc(Oc2nc(C(N)=O)cc(-c3ccccc3)n2)cc1 | -11.3
CCOc1cc2[nH]c(=O)n(CCCN3CCCC3=O)c(=O)c2cc1OCC | -6.1
CCOC(=O)N1CCN(CC(O)COCc2ccccc2)CC1.Cl (stereo not shown) | -4.06
COc1cc(/C=C2\SC(=S)N(Nc3ncc(C(F)(F)F)cc3Cl)C2=O)ccc1O | 5.23
O=C1N(Cc2cccc(Cl)c2)C[C@@H]2C[C@@H](c3ccc4nonc4c3)N3CCC[C@@]123 | -55.1
CC1(C)NC(=O)N(CCOc2ccc([N+](=O)[O-])cc2)C1=O | -37.6
CC(=O)c1cccc(NC(=S)NC(=O)c2ccc(Cl)cc2)c1 | -23.6
CCOc1ccc(CCNC(=O)c2cccnc2N2CCCC2)cc1OCC | 13.2
O=S(=O)(Cc1ccc(Cl)cc1)NCc1ccc2c(c1)OCO2 | 1.12
O=C(CSc1n[nH]c(-c2ccc(Cl)cc2Cl)n1)Nc1ccccn1 | 3.25
Cc1ccc2c(c1)c(N=NC(N)=S)c(O)n2Cc1ccccc1 | -1.71
COc1cccc(/C=N/N(C)C2=NS(=O)(=O)c3ccccc32)c1O | 11.8
COc1ccccc1-c1c(C)nn2c(-c3ccccc3)cc(C)nc12 | 3.05
Cc1ccccc1C(=O)NC1CCN(CC(=O)NCc2cccs2)CC1 | 6.14
CCOC(=O)C1=C(COC(=O)CC(C)c2ccccc2)NC(=O)NC1C (stereo not shown) | -17.8
Cc1ccc([N+](=O)[O-])c(NC(=O)COC(=O)C2CC3CCCC(C2)C3=O)c1C (stereo not shown) | 13.8
Cn1c(=O)oc2cc(S(=O)(=O)N3CCC(C(=O)Nc4ccc(OC(F)(F)F)cc4)CC3)ccc21 | -6.62
COc1ccc(C(=O)N2CCNC(=O)C2CC(=O)Nc2ccc(C)c(C)c2)cc1 (stereo not shown) | 6.3

Compound | hERG current change (%, negative = inhibition) at 10uM [%]
Cc1ccc(C(=O)CC2SC(N)=NC2=O)cc1 (stereo not shown) | 2.21
NS(=O)(=O)c1ccc(-c2ccc(C=NC3CCS(=O)(=O)C3)o2)cc1 (stereo not shown) | 6.63
O=[N+]([O-])c1cccc(S(=O)(=O)NCCc2ccccc2)c1 | 0.681
CCc1cc[n+](-c2nc3ccccc3nc2[N-]S(=O)(=O)c2ccc(Br)s2)cc1 | -37
CCN(CC)C(=O)COC(=O)c1ccc(O)cc1 | 7.43
CCC(CC)NC(=O)Nc1ccccc1C(F)(F)F | -2.77
O=C(NCc1nc2ccccc2[nH]1)c1ccco1 | 11.2
CC(NC(=O)c1ccccc1NC(=O)c1ccco1)C(=O)O (stereo not shown) | -1.62
CC(=O)c1ccc(Oc2cc(C)nc(-n3nc(C)cc3C)n2)cc1 | -59.9
O=C(CNC(=O)c1ccc(N2C(=O)c3ccccc3C2=O)cc1)OCC(=O)c1ccccc1 | 17.3
CCOC(=O)/C=C1\SCC(=O)N1CC(=O)Nc1cccc(F)c1 | -7.96
COC(=O)CC1COc2ccccc2N1C(=O)c1ccc(C(C)(C)C)cc1 (stereo not shown) | -0.791
Cc1nc2nc(SCC(=O)N3CCOCC3)nn2c(C)c1Cc1ccccc1 | -12.1
COC(=O)c1cn(Cc2c(C)cc(C)cc2C)nn1 | -4.66
Cc1cc(C)[n+](Cc2ccccc2)cc1C(N)=O.[Cl-] | 16.6
Cc1nc(C)c(C(=O)C2=C(O)C(=O)N(CCN3CCOCC3)C2c2ccco2)s1 (stereo not shown) | 11.2
Cc1ccc(N/C(N)=N/c2nc(C(F)(F)F)cc(C(F)(F)F)n2)cc1 | 18.9
CCOC(=O)CN1C(=O)C(=O)N(Cc2ccccc2F)C1=O | 13.4
CC(=O)Nc1ccc(NC(=O)COC(=O)c2ccc(C)s2)cc1 | 8.92
Cc1nc2ccccc2c(=O)n1-c1ccc(-c2ccccc2)cc1 | 2.92

Compound | hERG current change (%, negative = inhibition) at 10uM [%]
O=C(Cn1nnc2ccccc21)N1CCCCC1 | 2.94
O=C1CCC([N+](=O)[O-])C(c2ccccc2Br)N1 (stereo not shown) | 24.9
CCN(C(=S)Nc1cccnc1)c1ccccc1 | 4.09
CCOc1ccccc1-n1c(O)c(C=Nc2c(C)n(C)n(-c3ccccc3)c2=O)c(=O)[nH]c1=O | 0.307
CCCCn1c(N)c(N(CC(C)C)C(=O)CCCc2cccs2)c(=O)[nH]c1=O | -9.44
CCOC(=O)C1(Cc2cccc(F)c2)CCN(Cc2cn(CC)nc2C)CC1 | -38
CC(=O)c1c(C)[nH]c(C(=O)Nc2nc(C)cs2)c1C | -14.5
CSc1nnc(NC(=O)c2ccc(S(=O)(=O)N(C)C)cc2)s1 | 18.2
COc1ccc(C[C@H]2CN3C(=NC[C@@H]3C(C)C)N2C[C@H](C)NC(=O)c2ccc(C)c(Br)c2)cc1 | -74.5
COC(=O)c1ccc(C)c(NS(=O)(=O)c2cn(C)nc2C)c1 | 4.54
CCc1nc(SCC(=O)NNC(=O)C(C)C)c2ccccc2n1 | 15
CC(C)NC(=O)Cn1c(=O)cnc2ccccc21 | -2.78
Cc1cc(=O)n2c(-c3ccccc3C)n[nH]c2n1 | -15.3
COc1ccc(/C=N/Nc2ncc(Br)cn2)c(OC)c1 | 27.2
Cc1cc(C)n(CC2CC(=O)N(c3ccc(Cl)c(Cl)c3)C2=O)n1 (stereo not shown) | -11.4
COc1ccc(S(=O)(=O)Nc2ccc3c(c2)N(C(C)=O)CCC3)cc1 | -1.26
O=C(c1ccc(Cl)cc1)N(c1ccccn1)C1CCCCC1 | 7.05
Cc1ccc(S(=O)(=O)N2CCN(C(=O)COC(=O)COc3cccc4c3OC(C)(C)C4)CC2)cc1 | -1.97
